Experimental data from article PMC4336329 (PLoS ONE, 2015).
Screen size: about 310,000 compounds; about 2,200 (0.71%) showed an effect of 50% or more. Effects have a minus sign here. The list shows a part of the results.

These compounds were tested against human ether-à-go-go-related gene (hERG) potassium channel (human, UniProt Q12809) (assay: primary screen, population patch clamp on CHO cells stably expressing hERG).
Chain of human ether-à-go-go-related gene (hERG) potassium channel (Q12809 whole entry, looked up): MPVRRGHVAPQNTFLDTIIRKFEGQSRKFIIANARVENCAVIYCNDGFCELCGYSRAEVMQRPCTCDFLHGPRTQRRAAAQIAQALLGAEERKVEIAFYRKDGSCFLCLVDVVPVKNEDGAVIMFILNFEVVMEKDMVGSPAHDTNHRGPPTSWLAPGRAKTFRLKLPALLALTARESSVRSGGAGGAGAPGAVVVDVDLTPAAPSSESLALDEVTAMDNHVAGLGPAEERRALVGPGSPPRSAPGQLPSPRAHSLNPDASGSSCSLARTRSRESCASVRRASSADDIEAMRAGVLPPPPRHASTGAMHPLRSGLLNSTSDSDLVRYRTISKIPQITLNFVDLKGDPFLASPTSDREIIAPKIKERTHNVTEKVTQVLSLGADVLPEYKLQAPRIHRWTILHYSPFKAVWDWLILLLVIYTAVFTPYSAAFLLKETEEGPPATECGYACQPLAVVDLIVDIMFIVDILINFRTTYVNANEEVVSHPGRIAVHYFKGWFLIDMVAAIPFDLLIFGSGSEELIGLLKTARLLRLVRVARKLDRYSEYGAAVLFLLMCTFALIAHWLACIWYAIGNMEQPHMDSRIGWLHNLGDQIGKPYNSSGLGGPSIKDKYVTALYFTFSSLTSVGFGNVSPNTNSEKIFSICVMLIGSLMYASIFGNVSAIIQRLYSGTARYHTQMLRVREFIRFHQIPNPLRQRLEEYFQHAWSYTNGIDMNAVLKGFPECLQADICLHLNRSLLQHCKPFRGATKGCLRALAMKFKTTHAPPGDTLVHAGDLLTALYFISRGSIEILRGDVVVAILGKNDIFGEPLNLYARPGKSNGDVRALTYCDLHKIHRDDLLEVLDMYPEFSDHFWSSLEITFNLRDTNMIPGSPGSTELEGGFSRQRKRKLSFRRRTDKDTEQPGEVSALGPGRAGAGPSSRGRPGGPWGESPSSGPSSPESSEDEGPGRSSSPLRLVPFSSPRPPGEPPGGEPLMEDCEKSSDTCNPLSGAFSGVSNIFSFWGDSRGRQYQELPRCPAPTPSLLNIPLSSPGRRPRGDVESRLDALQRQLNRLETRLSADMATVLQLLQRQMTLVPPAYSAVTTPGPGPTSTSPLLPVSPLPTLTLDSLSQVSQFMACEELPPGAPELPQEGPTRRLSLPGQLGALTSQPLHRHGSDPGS

SMILES | hERG current change (%, negative = inhibition) at 1uM [%]
Cc1ccc(C2N(c3cccc(Cl)c3)C(=O)N3CCCN23)cc1 (centres unmarked) | 15.7
COc1cccc(N(C(=O)c2ccco2)c2nc(-c3sc(NC(=O)c4ccco4)nc3C)cs2)c1 | 13.8
Cc1ccsc1/C=N\NC(=O)Cn1nnc2ccccc21 | 7.58
CCOC(=O)C1CCCCN1C(=O)CCc1nnc(-c2ccc3c(c2)OCO3)o1 (centres unmarked) | 12.3
O=c1cc(CSc2ccccn2)[nH]c(=O)[nH]1 | 2.75
O=C(CN1C(=O)S/C(=C\c2ccc(-c3cc(C(=O)O)ccc3Cl)o2)C1=O)Nc1ccc2c(c1)OCO2 | 14.4
Cc1ccc2c(Cl)c(C)c(N3CCCC3)nc2n1 | 0.942
CCN1CCN(c2cc3c(cc2F)c(=O)c(S(=O)(=O)c2ccccc2)cn3C)CC1 | 5.79
CCCOP(=O)(c1ccc(N(C)C)cc1)C(O)c1c(Cl)cccc1Cl (centres unmarked) | 14
COc1ccccc1CCC(=O)Nc1nc2ccccc2[nH]1 | 18.7
O=c1c2ccccc2nc(/C=C/c2ccc(F)cc2)n1-c1ccccc1O | 2.24
COc1ccc(Br)cc1CN(C)CC(=O)Nc1c(Cl)cccc1Cl | 4.1
Cn1cc(CN2CCC(n3nccc3NC(=O)C3CCCC3)CC2)cn1 | 0.668
CCOC(=O)c1cnn(-c2ccccc2)c1NC(=O)c1cccs1 | 2.37
COc1ccc(-n2c(SCC(=O)Nc3cccc(C(=O)O)c3)nnc2-c2ccco2)cc1 | 12.4
O=C(NCC1CCCO1)c1ccc(N2CCCCC2)c([N+](=O)[O-])c1 (centres unmarked) | 7.52
Cc1cc(N)c(NC2=CC(=O)CC(C)(C)C2)cc1C | 4.99
CCOC(=O)C(=O)N1CCN(CC)CC1 | 12.1
COc1cc(NC(=O)C(F)(F)F)cc(OC)c1 | 2.19
Cc1cc(N2CCC(C(=O)N3CCN(c4cccc(C)c4C)CC3)CC2)n2ncnc2n1 | -7.35
O=C(Cn1c(=O)oc2cc(S(=O)(=O)N3CCCCCC3)ccc21)NC1CCCCCCC1 | 4.3
Cc1ccc(Cn2c(=O)sc3ccccc3c2=O)cc1 | 15.1

SMILES | hERG current change (%, negative = inhibition) at 1uM [%]
NNC(=O)c1c(O)c2cccc3c2n(c1=O)CCC3 | 20.2
CCc1c(C)sc(NC(=O)Cn2nc(C)c([N+](=O)[O-])c2C)c1C(N)=O | 11.7
CC1CCCCN1C(=O)CN1C(=O)c2ccccc2S1(=O)=O (centres unmarked) | 3.49
c1ccc2c(-c3cn4ccccc4n3)c[nH]c2c1 | 13
Cc1cc(O)c(NC(=O)c2ccc(C)c([N+](=O)[O-])c2)cc1C | 13.7
Cc1ccc(N(CC(=O)Nc2ccc(F)cc2)S(=O)(=O)N2CCCC2)cc1 | 4.05
COc1ccc(-c2cc(C(F)(F)F)nc(SCC(=O)NCc3cnn(C)c3C)n2)cc1OC | 7.19
O=C(CCn1c(=O)oc2ccccc21)Nc1cccc([N+](=O)[O-])c1 | 13.7
Cc1ccn2cc(-c3cnoc3C)nc2c1 | 10.6
O=C(Nc1cccc(O)c1)c1cccc(C(=O)Nc2cccc(O)c2)c1 | 20.2
COC(=O)c1cc(Br)ccc1N(Cc1cc(OC)cc(OC)c1)S(C)(=O)=O | 16.2
Fc1cc(Br)cc(F)c1NC(=S)N1CCOCC1 | 4.04
Cc1cc(C(=O)CCC(=O)N2CCN(c3ccccc3O)CC2)c(C)s1 | 3.14
O=C(Nc1nnc(Cc2ccccc2)s1)C1CCC1 | 13
CN(NC(=O)c1ccccc1)c1nc2ccccc2nc1C(F)(F)F | 2.3
Cc1ccc2[nH]c(C(=O)Nc3ccc(F)cc3)cc2c1 | 13
O=S(=O)(NN1CCOCC1)c1cc(Cl)cc(Cl)c1O | 12.3
Nc1ccccc1C(=O)N(Cc1ccccc1)Cc1ccccc1 | 2.11
O=C(NNc1nc2c(F)cccc2s1)C1=COCCO1 | 16.5
CN(Cc1cnccn1)C(=O)C1CCC(=O)N(CCc2ccc(Cl)cc2)C1 (centres unmarked) | 0.628
COc1ccc(/C=N/NC(=O)Nc2ccc3nsnc3c2)c(OC)c1 | 4.71
COc1ccc([C@H]2CC(=O)C=C(c3cc4ccccc4s3)C2)cc1 | 8.5
